30 compounds from PubChem BioAssay AID1745853 (National Center for Advancing Translational Sciences (NCATS), 2022) can be followed below.

Test in all cases: Primary Screen for Target Class Profiling of Small Molecule Inhibitors of Methyltransferases
In assay [1] the target is Glycine N-methyltransferase (Homo sapiens) (UniProt Q14749). The settings on record: purified enzyme, MTase-Glo SAH luminescence; measured here: GNMT inhibition; at 40 µM; stronger effect = lower value. An outline of the steps:
(§1)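 Each enzyme was reacted with SAM and its substrate, with compounds tested once at 40 uM; SAH formed was read by MTase-Glo luminescence.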

Assay [2] has as its target Guanidinoacetate N-methyltransferase (Homo sapiens) (UniProt Q14353). The settings on record: purified enzyme, MTase-Glo SAH luminescence; measured here: GAMT inhibition; at 40 µM; stronger effect = lower value. An outline of the steps: as §1
Assay [3] addresses Histamine N-methyltransferase (Homo sapiens) (UniProt P50135). The settings on record: purified enzyme, MTase-Glo SAH luminescence; measured here: HNMT inhibition; at 40 µM; stronger effect = lower value. The essentials: as §1
The target of assay [4] is Nicotinamide N-methyltransferase (Homo sapiens) (UniProt P40261). As to conditions: purified enzyme, MTase-Glo SAH luminescence; measured here: NNMT inhibition; at 40 µM; stronger effect = lower value. The essentials: as §1
For assay [5], the target named is Phenylethanolamine N-methyltransferase (Homo sapiens) (UniProt P11086). The settings on record: purified enzyme, MTase-Glo SAH luminescence; measured here: PNMT inhibition; at 40 µM; stronger effect = lower value. The essentials: as §1

“And” between values parts separate entries of the source, which are not always exact repeats. Equal values may be shown once. The list shows a part of the results. These are further read-outs of the screen, such as a control signal, another cell line or another target. No call is given for them.
On the % scale 0 is the no-effect control and ±100 the full control effect.

As for `Cc1nn2c(N3CCC(O)C3)cc(-c3ccccc3)nc2c1C` (stereo not drawn), the activity change, negative = inhibition in assay [1] is -2.92%; in assay [2], -3.8%; in assay [3] it was -6.29%; in assay [4], -5.84%; in assay [5], -5.29%.

As for `CC1(C(=O)NC2CCCCC2)Cn2c(cc3occc32)C(=O)N1C1CCCC1` (stereo not drawn), the activity change, negative = inhibition in assay [1] was 5.82%; in assay [2] it was 0.32%; in assay [3], 8.59%; in assay [4], 14.1%; in assay [5], 5.37%.

As for `CC1=C[C@@H](CNC(=O)c2cnccn2)[C@H](C(C)C)C[C@H]1CC(=O)O`, the activity change, negative = inhibition in assay [1] is -4.9%; in assay [2] it was -2%; in assay [3], -0.408%; in assay [4] it was -6.43%; in assay [5] it was -5.14%.

As for `Cc1cc(Nc2nc(-c3ccccc3)nc3ccccc23)n[nH]1`, the activity change, negative = inhibition in assay [1] is -13.6%; in assay [2] it was 4.74%; in assay [3], -2.15%; in assay [4] it was -17%; in assay [5], 1.88%.

Take `Brc1cccc(-c2nnn3c2nc(NCC2CCCO2)c2ccccc23)c1` (stereo not drawn): the activity change, negative = inhibition in assay [1] is -2.28%; in assay [2] it was 1.6%; in assay [3] it was 2.25%; in assay [4], -3.35%; in assay [5] it was -5.57%.

On to `Cc1ccc(N2C(=O)Cn3cccc3C2C(=O)NC2CCCCC2C)cc1` (stereo not drawn), for which the activity change, negative = inhibition in assay [1] was -0.771%; in assay [2] it was 1.01%; in assay [3], -2.91%; in assay [4] it was 4.49%; in assay [5], -4.18%.

As to `O=C(Cn1ccc2cc(S(=O)(=O)N3CCCCC3)ccc21)NCc1ccc2c(c1)OCO2`, the activity change, negative = inhibition was 1.62% in assay [1]; 2.8% in assay [2]; 2.23% in assay [3]; -8.58% in assay [4]; -1.11% in assay [5].

In the case of `Cc1ccc(Cn2c(=O)c3ccccc3n3c(SCC(=O)Nc4ccc(Cl)cc4)nnc23)cc1`, the activity change, negative = inhibition in assay [1] was determined as 6.71%; in assay [2], 0.406%; in assay [3], 13.5%; in assay [4], 5.34%; in assay [5] it was 7.01%.

Turning to `O=C(c1ccc(C(F)(F)F)cc1)N1CCC2(CC1)COc1ccccc1NC2=O`, the activity change, negative = inhibition is -10.3% in assay [1]; -4.73% in assay [2]; -6.02% in assay [3]; -10.3% in assay [4]; -7.36% in assay [5].

On to `CNC(=O)c1noc([C@@H]2CC(F)(F)CN2Cc2cnn(C(C)C)c2)n1`, for which the activity change, negative = inhibition in assay [1] was -0.193%; in assay [2], -0.351%; in assay [3], 0.874%; in assay [4] it was -0.215%; in assay [5], -2.27%.

Turning to `Cc1cc2c(cc3n2CC(C)(C(=O)NC2CCCCCCC2)N(CCC(C)C)C3=O)o1` (stereo not drawn), the activity change, negative = inhibition in assay [1] is -3.21%; in assay [2], 3.11%; in assay [3], 8.88%; in assay [4], -9.97%; in assay [5] it was -10.6%.

For `O=C(/C=C/c1ccc2ccccc2n1)c1ccncc1`, the activity change, negative = inhibition in assay [2] was 6.96%; in assay [4] it was -15.9%; in assay [5], 2.59%.

`CCCCN1C(=O)c2cc(C(=O)NCCc3ccc(C)cc3)nn2CC1(C)C(=O)NC1CCCC1` (stereo not drawn): the activity change, negative = inhibition in assay [1] is 4.89%; in assay [2] it was 5.41%; in assay [3] it was 1.55%; in assay [4], -1.73%; in assay [5] it was 0.301%.

For the compound `CSCC(=O)N[C@@H]1CN(Cc2cccnc2)C[C@H]1CN(C)C`, the activity change, negative = inhibition in assay [1] is -7.08%; in assay [2] it was -11.1%; in assay [3] it was -3.7%; in assay [4], -9.94%; in assay [5] it was -2.67%.

For the compound `CC1(C(=O)NC2CCCCCCC2)Cn2c(cc3sccc32)C(=O)N1Cc1cccc(Cl)c1` (stereo not drawn), the activity change, negative = inhibition was 1.21% in assay [1]; 0% in assay [2]; 8.22% in assay [3]; 5.62% in assay [4]; 1.21% in assay [5].

Consider `Cc1cc(N(C)C)ccc1-c1nc2ccc(-c3nc4ccc(N5CCN(C)CC5)cc4[nH]3)cc2[nH]1`, for which the activity change, negative = inhibition in assay [1] is -13.2%; in assay [2] it was -4.28%; in assay [3], -84.7%; in assay [4], -15.4%; in assay [5] it was -7.44%.

For the compound `CCc1ccc(N2C(=O)c3cc(-c4ccco4)nn3CC2(C)C(=O)NC2CCCCCC2)cc1` (stereo not drawn), the activity change, negative = inhibition is -1.19% in assay [1]; 0% in assay [2]; 5.87% in assay [3]; -7.7% in assay [4]; -2.06% in assay [5].

With `CCCN1C[C@H](CSC)C[C@@H]2c3cccc4[nH]cc(c34)C[C@H]21`, the activity change, negative = inhibition in assay [1] was -4.29% and -25.4%; in assay [2] it was -2.04% and 7.88%; in assay [3] it was -4.64% and -9.58%; in assay [4] it was -13.1% and -9.94%; in assay [5], -21.9% and -16.9%.

Regarding `COc1cc(CC2COC(c3ccc(OC4OC(CO)C(O)C(O)C4O)c(OC)c3)C2CO)ccc1O` (stereo not drawn), the activity change, negative = inhibition in assay [1] is 0%; in assay [2], 6.71%; in assay [3], 7.94%; in assay [4], -2.93%; in assay [5], 7.63%.

With `CN[C@H](C(=O)N[C@H](C(=O)N(C)[C@H](/C=C(\C)C(=O)O)C(C)C)C(C)(C)C)C(C)(C)c1ccccc1`, the activity change, negative = inhibition was 3.32% in assay [1]; -5.99% in assay [2]; 1.85% in assay [3]; -13.6% in assay [4]; -3.26% in assay [5].

For `CCCn1c(=O)c2ccc(Cl)cc2n2c(=O)n(Cc3cccc(F)c3)nc12`, the activity change, negative = inhibition in assay [1] was found to be 2.85%; in assay [2] it was 5.47%; in assay [3], 11.8%; in assay [4], 1.46%; in assay [5], 3.9%.

As for `CCc1ccc(CNC(=O)c2ccc3c(=O)nc4c(-c5ccc(OC)cc5)n[nH]n4c3c2)cc1`, the activity change, negative = inhibition in assay [1] amounted to 4.07%; in assay [2], 0%; in assay [3] it was 1.21%; in assay [4], 5.01%; in assay [5] it was 3.21%.

For the compound `COCCN1C(=O)N(C)C(=O)C12CCN(Cc1cc(F)ccc1F)C2` (stereo not drawn), the activity change, negative = inhibition is -4.63% in assay [1]; -6.63% in assay [2]; -0.811% in assay [3]; -11.7% in assay [4]; -7.19% in assay [5].

For the compound `Cc1ccc(Cn2c(=O)c3ccccc3n3c(-c4ccc(Cl)cc4)nnc23)cc1`, the activity change, negative = inhibition in assay [1] is -8.6%; in assay [2] it was 5.1%; in assay [3] it was 3.76%; in assay [4], -0.27%; in assay [5] it was -3.85%.

Take `CCc1ccccc1N1C(=O)c2cc(-c3ccccc3)nn2CC1(C)C(=O)NCCCOC` (stereo not drawn): the activity change, negative = inhibition is 7.17% in assay [1]; 0.444% in assay [2]; 8.36% in assay [3]; 11.5% in assay [4]; 1.4% in assay [5].

Take `O=C(O)[C@H]1C[C@@H](C(=O)NCc2cccnc2)CN(Cc2ccccn2)C1`: the activity change, negative = inhibition in assay [1] was -5.94%; in assay [2], -7.41%; in assay [3], -4.62%; in assay [4] it was -14.8%; in assay [5], -5.26%.

With `CC(=O)O[C@]1(C(C)=O)CC[C@H]2[C@@H]3C[C@H](C)C4=CC(=O)C=C[C@]4(C)[C@@]3(F)[C@@H](O)C[C@@]21C`, the activity change, negative = inhibition in assay [1] was -1.95%; in assay [2], 5.73%; in assay [3], 11.4%; in assay [4], -9.1%; in assay [5], 4.74%.

Turning to `CCc1cc2c(cc3n2CC(C)(C(=O)NC2CCCCCC2)N(Cc2cccc(F)c2)C3=O)s1` (stereo not drawn), the activity change, negative = inhibition in assay [1] was -7.43%; in assay [2], 0.226%; in assay [3], -6.04%; in assay [4], -8.69%; in assay [5] it was -8.74%.

With `Cc1ccc(C)c(C(=O)Cn2nc3n(C(C)C)c(=O)c4ccc(C(=O)NC5CCCC5)cc4n3c2=O)c1`, the activity change, negative = inhibition was found to be 5.21% in assay [1]; 0% in assay [2]; 9.73% in assay [3]; 2.35% in assay [4]; 3.83% in assay [5].

Take `O=C(Cc1cccc(Cl)c1)N1CCC(C(=O)N2CCC(c3ccccc3)CC2)CC1`: the activity change, negative = inhibition in assay [1] is -8.67%; in assay [2], -8.27%; in assay [3] it was -4.72%; in assay [4] it was -15.7%; in assay [5], 4.36%.
